Laboratory results reported in PubChem BioAssay AID1814 (Broad Institute, 2009).
In all, about 300,000 compounds went through this assay and about 22,000 (7.3%) were called active. The shares of active, inactive and inconclusive entries below differ from those in the screen. Rule as the data show it: active = activity score below about -60%; inconclusive = mostly about -28% to -61%; inactive = positive scores.

Assay: Activators via SNCA 5'UTR binding, MLPCN (AID 1814)
Conditions: alpha-synuclein 5'UTR reporter, activators screen; active compounds read low; tested at 7.5 µM

Activity score, inconclusive:
Cc1nnc(-c2ccc(N3CCCCCC3)c([N+](=O)[O-])c2)o1 -49.1%
CCOc1ccc(-c2nc(CN(Cc3ccccc3)C[C@@H]3CCC(=O)N3)c(C)o2)cc1 -61.1%
O=C(Nc1ccc(Cl)cc1F)C1CC1c1ccccc1 (configuration not stated) -61.4%
CC(C)C(=O)Nc1sc2c(c1C#N)CCCCC2 -57.8%
CN1CCc2ccc(NC(=O)c3ccc(C(F)(F)F)cc3)cc2C1 -58.7%
Cc1cc(NC(=O)NC2(C(F)(F)F)Oc3ccc(Cl)cc3O2)no1 (configuration not stated) -54.8%
O=C(c1cn(-c2ccccc2)nc1-c1cc2ccccc2oc1=O)N1CCOCC1 -53.1%
COc1ccc2nc(N)sc2c1 -61.4%
CCN(Cc1ccccc1)C(=O)CCc1nnc(CCCc2ccccc2)o1 -48.2%
O=c1c2c3c(sc2nc2n1CCCS2)CCCC3 -55.3%
O=C(Nc1nnc(-c2ccc(Cl)cc2)o1)NC1CCCCC1 -53.6%
C/C1=C\CCC2C(/C=C(\C)CC1)OC(=O)C2CN1CCCCC1 (configuration not stated) -50.4%
C/C(=N\NC(=O)CNc1ccccc1Cl)C(C)(C)C -46.4%
Fc1ccc(-n2c(-c3ccc4c(c3)OCO4)n[nH]c2=S)cc1Cl -59.4%
CCCCCOc1ccc(NS(C)(=O)=O)cc1 -43.8%
CCN(CC)c1ccc(NC(=O)c2cc3ccccc3o2)c(C)c1 -60.3%
CCOC(=O)c1sc(NC(=O)Cc2c(F)cccc2Cl)nc1C -48.2%
Cc1cc(Cl)ccc1OCCCC(=O)NCCN1C(=O)S/C(=C\c2cccnc2)C1=O -57.1%
Cc1cc(-c2ccc(Cl)cc2)c(C#N)c(N)n1 -41.5%
O=C(CSc1ccccn1)NCc1ccc2c(c1)OCO2 -52.3%
CN1CCC(=O)N(CCSc2ccccc2)CC1 -58.8%
Cc1cccc(Nc2nc(N)nc(CN3CCC(C)CC3)n2)c1C -36.4%
N#CCCN1CCN(C2=NC(=O)C(=C3CCCCC3)S2)CC1 -54.3%
Cc1nc(-c2ccccc2)sc1C(=O)CSc1ccc(F)cc1 -49.7%
CCc1ccc(C(=O)COC(=O)c2ccc(Cl)nc2)cc1 -55.5%
CC(=O)Oc1ccc2c(=O)c(Oc3ccccc3)c(C)oc2c1OC(C)=O -46.1%
CC(C)Cc1ccc(C(C)NC(=O)Cc2ccc(S(=O)(=O)N3CCOCC3)s2)cc1 (configuration not stated) -41.3%
COc1ccc(NCC(=O)N/N=C/c2ccc3c(c2)OCCO3)cc1 -39.7%
Cc1ccc(Nc2cc(C(=O)NCCCN3CCOCC3)c3ccccc3n2)cc1C -48.5%
CC(NCc1ccccc1Cl)C(=O)Nc1ccc(C#N)cc1 (configuration not stated) -29.9%
OCCNc1cc(Cl)ncn1 -29.8%
C=CCn1c(-c2ccc(OC)cc2)nc2nc3ccccc3nc21 -31.8%
Cc1occc1C(=O)NNC(=S)NCc1ccc(Cl)cc1 -43.7%
CC1CC(N(C(=O)c2ccco2)c2ccccc2)c2ccccc2N1 (configuration not stated) -37.4%
CC(C)c1ccccc1NC(=O)c1ccco1 -49.4%
Nc1nnc(SC2CCCC2)s1 -33.1%
O=C(Nc1ccc2c(c1)OC1(CCCC1)O2)C1CC1 -54.8%
O=C(CS(=O)(=O)Cc1ccccc1)N1CCc2ccccc2C1 -54%
COCC(C)n1c(SCC(=O)NC(=O)Nc2ccc3c(c2)OCCO3)nc2ccccc2c1=O (configuration not stated) -58.5%
NC(=O)c1cc2ccc(O)cc2oc1=Nc1ccccc1 -58.5%
Oc1ccc(-c2sc(Nc3ccccc3)n[n+]2-c2ccc(F)cc2)cc1 -43.7%
COC(=O)c1sc(=S)sc1C(=O)OC -37.7%
O=C1NN(c2cccc(Br)c2)C(=O)/C1=C/c1ccc(-c2cc([N+](=O)[O-])ccc2O)o1 -24.3%
COC(=O)N/N=C(\C)c1ccc(OC(F)F)cc1 -53.5%
Cn1c(=O)oc2cc(S(=O)(=O)N3CCN(c4cccc(Cl)c4)CC3)ccc21 -51.2%
COc1ccc(-c2nnc(SCC(=O)NCc3ccco3)o2)cc1 -49.5%
COc1ccccc1NC(=O)Cc1coc2cc(C)ccc12 -46.9%
O=C(O)c1cc(-c2ccc(/C=N/N3C(=O)C4C5C=CC(C6CC56)C4C3=O)o2)ccc1Cl (configuration not stated) -37.9%
Cc1cccc(OCc2nc(-c3cccnc3)no2)c1 -50.2%
Cc1ccc2oc(=O)c(/C=C(\O)C(C)(C)C)nc2c1 -48.4%
COc1ccccc1/C=N/NC(=O)c1cc2c(OC)c(OC)ccc2[nH]1 -61.4%
Cc1ccc2c(c1)NC(c1cccs1)C1=C(CC(C)(C)CC1=O)N2 (configuration not stated) -48.8%
CC(=O)Nc1cccc(NC(=O)c2cc(-c3cccnc3)nc3ccc(Cl)cc23)c1 -53.3%
CCOC(=O)C(=Cc1ccc(-n2cncn2)cc1)C(=O)OCC -58.4%
Cc1ccc(N2CCN(C(=S)c3ccc(N(C)C)cc3)CC2)cc1 -61.5%
O=C(CSc1nnc(-c2ccc(OC(F)F)cc2)o1)NC(=O)NCc1ccco1 -56.2%
C/C(=N\NC(=O)c1nn(C)cc1Br)c1cccc(NC(=O)c2ccncc2)c1 -55.9%
c1ccc(-c2ccc(-c3nc(-c4cccnc4)no3)cc2)cc1 -58.4%
O=C(NNC(=O)c1ccccc1Cl)c1ccco1 -59.3%
CNC(=S)N1N=C(c2ccc(C)cc2)CC1c1ccc(N(C)C)cc1 (configuration not stated) -43.2%
O=C(Nc1ccccc1N1CCOCC1)c1cc2ccccc2o1 -60.4%
CC(=O)c1c(C)nc(-c2ccccc2)nc1NC(=O)Cc1ccccc1 -57.4%

Activity score, active:
O=C(N/N=C/c1ccc(F)cc1)c1sccc1OCc1ccc(F)cc1 -94.3%
Cc1cc(/C=C2/NC(=O)N(c3ccccc3)C2=O)c(C)n1-c1cccnc1 -149%
CCCCOC(=O)c1ccc(NC(=O)/C=C/c2cccs2)cc1 -87.9%
CC(=O)Nc1ccccc1NC(=O)C/C(C)=N/NC(=O)c1ccccn1 -114%
Cc1ccc(OCCSc2ncccn2)c(C)c1 -77.5%
CCCCN1CCc2c([nH]c3ccc(C)cc23)C1=O -171%
COc1ccc(NC(=O)c2sccc2C)cn1 -115%
CC(C)Cc1cc(C(=O)NCCc2ccccc2)no1 -169%
Cn1cccc1C(=O)OCc1csc(-c2ccccc2)n1 -112%
Cc1cccc2sc(NC(=O)C3CCCO3)nc12 (configuration not stated) -126%
CC(=O)Nc1ccc(/C=N/NC(=O)c2cccs2)cc1 -159%
Cc1cccc(N=Nc2c(C)[nH]n(-c3ccccc3)c2=O)c1 -126%
Fc1ccc(NC(=S)Nc2ccc3nccnc3c2)cc1 -90.5%
CCCNC(=O)Nc1nc2ccccc2s1 -118%
N=c1oc2ccccc2cc1C(=O)Nc1cccc(F)c1 -122%
O/C(=C\c1nc2ccccc2[nH]1)c1cccs1 -200%
CC(=O)Nc1cccc(-n2nnc(SCC(=O)c3ccccc3)n2)c1 -121%
Fc1ccc(/C=N/Nc2nc3ccccc3[nH]2)cc1F -159%
Cc1cnc(C(=O)Nc2ccc(C(C)C)cc2)cn1 -142%

Activity score, inactive:
COc1cccc(CN2C(=O)C3(C(C#N)=C(N)OC4=C3C(=O)CCC4)c3ccccc32)c1 (configuration not stated) 62.7%
C(=N\Nc1ccc2nncn2n1)/c1ccccn1 66.6%
COc1ccc(Nc2cc3n(c(=O)n2)CCc2cc(OC)c(OC)cc2-3)c(C)c1 80.1%
Cc1cc(N2CCN(Cc3cn(C)nc3-c3cccc(Cl)c3)CC2)cc(C)n1 71.6%
CCOc1cc(/C=C/C(=O)Nc2ccc(C(=O)NCCN(CC)CC)cc2)ccc1OCC(C)C 47.3%
O=C(Nc1ccc([N+](=O)[O-])cc1)Nc1ccon1 74%
O=[N+]([O-])c1cc(O)c2ncccc2c1 70.1%
Cc1ccc(NC(=O)c2cc3ccccc3oc2=N)cc1 81.7%
COc1cc2c(c(OC)c1OC)-c1ccc(OC)c(=O)cc1[C@@H](NC(C)=O)CC2 95.7%
Clc1ccc(-c2nnc(NC3=NCCCCC3)o2)cc1 75.1%
CC#CC(=O)N1CCC(CCc2ccccc2)(C(=O)OCC)CC1 46.7%
O=C(N/N=C/c1cc([N+](=O)[O-])ccc1Cl)c1cnccn1 81.1%
O=C(CC12CC3CC(CC(C3)C1)C2)NC(=S)NCc1ccccc1 52.3%
Nc1ccc(N2CCCCC2)cc1N1CCCCC1 84.6%
Clc1ccc(-c2cn3nc4c(nc3n2)CCCC4)cc1 88.2%
Cc1ccc(CSc2nc3ccccc3cc2C=O)cc1 93.4%
